{"source": "PubChem BioAssay AID360", "about": "(National Center for Advancing Translational Sciences (NCATS), 2006)", "note": "Among all 48,000 compounds or so, about 550 (1.1%) were called active. Inconclusive results (about 4%) are left out. No stated cut-off is given here; in the data, active means potency below about 15 µM; inconclusive means mostly about 16 µM to 33 µM; inactive means weaker than that. This is one part of the list. Potency means the concentration at half of the fitted maximal effect."}
{"target": "Lysosomal acid glucosylceramidase (Homo sapiens) (UniProt P04062)", "sequence (P04062 whole entry, looked up)": "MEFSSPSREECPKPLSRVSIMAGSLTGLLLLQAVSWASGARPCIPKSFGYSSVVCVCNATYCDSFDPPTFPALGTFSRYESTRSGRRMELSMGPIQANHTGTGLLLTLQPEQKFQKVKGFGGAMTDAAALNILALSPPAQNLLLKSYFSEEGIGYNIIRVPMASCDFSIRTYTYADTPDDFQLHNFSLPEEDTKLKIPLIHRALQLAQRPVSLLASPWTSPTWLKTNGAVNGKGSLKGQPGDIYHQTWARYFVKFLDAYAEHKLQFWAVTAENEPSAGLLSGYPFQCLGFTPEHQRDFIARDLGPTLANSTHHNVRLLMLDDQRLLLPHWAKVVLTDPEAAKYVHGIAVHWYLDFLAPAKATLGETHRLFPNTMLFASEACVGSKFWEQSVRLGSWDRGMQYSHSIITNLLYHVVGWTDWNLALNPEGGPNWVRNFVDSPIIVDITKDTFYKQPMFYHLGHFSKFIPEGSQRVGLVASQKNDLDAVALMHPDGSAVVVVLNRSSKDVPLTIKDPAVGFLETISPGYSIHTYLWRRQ", "assay": "Glucocerebrosidase;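 further: the screen sought inhibitors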", "conditions": "purified enzyme, resorufin glucoside fluorescence (screen aimed at inhibitors), 20 min; series mostly up to 77 µM", "summary_of_the_method": "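Normal human glucocerebrosidase (0.2 nM final) was assayed with resorufin β-D-glucopyranoside (30 uM final) in 50mM citric acid/KH2PO4, 10mM sodium taurocholate, 0.01% tween-20, pH 5.9. Compounds were titrated; fluorescence (Ex 548, Em 600) read after 20 min at RT.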"}
{"smiles": "CCCNS(=O)(=O)c1ccc(CCC(=O)NCc2cccnc2)cc1", "Potency": "inactive: > 76.9 µM"}
{"smiles": "CC(C)(C)c1ccc2c(c1)N(CC(=O)O)C(=O)CO2", "Potency": "inactive: > 76.9 µM"}
{"smiles": "O=C(CSc1nc2ccccc2n1CC(=O)N1CCCC1)NCc1ccc2c(c1)OCO2", "Potency": "inactive: > 76.9 µM"}
{"smiles": "C=CCn1nnnc1SCC(=O)Nc1ccccc1C(=O)OC", "Potency": "inactive: > 76.9 µM"}
{"smiles": "CCNC(=O)N1c2ccc(OC)cc2C(C)=CC1(C)C", "Potency": "inactive: > 76.9 µM"}
{"smiles": "COc1cc2c(cc1OC)/C(=C/C#N)NC(C)(C)C2", "Potency": "inactive: > 76.9 µM"}
{"smiles": "COc1ccc2c(c1)C(=NO)c1cc(OC)ccc1-2", "Potency": "inactive: > 76.9 µM"}
{"smiles": "O=C(c1ccco1)N1CCN(C(=O)c2ccccc2Oc2ccccc2)CC1", "Potency": "inactive: > 76.9 µM"}
{"smiles": "Clc1ccc(Cn2cccc2C2=NCCO2)cc1", "Potency": "inactive: > 76.9 µM"}
{"smiles": "CN1CCN(Cc2nc(N)nc(Nc3ccc4c(c3)OCCO4)n2)CC1", "Potency": "inactive: > 76.9 µM"}
{"smiles": "O=C(c1ccccc1)N1CCCCC(S(=O)(=O)c2ccccc2)C1=O", "note": "(stereo unspecified)", "Potency": "inactive: > 76.9 µM"}
{"smiles": "COC(=O)n1c(=S)oc2cc(Cl)ccc21", "Potency": "inactive: > 76.9 µM"}
{"smiles": "CN(C)c1ccc(NC(=O)c2cc3c(=O)n4ccccc4nc3n2C)cc1", "Potency": "inactive: > 76.9 µM"}
{"smiles": "CCOC(=O)CSC1=Nc2ccccc2C2=NC(CC(=O)NCc3cccs3)C(=O)N12", "note": "(stereo unspecified)", "Potency": "inactive: > 76.9 µM"}
{"smiles": "COc1cc(S(=O)(=O)NC2CCCC2)ccc1Cl", "Potency": "inactive: > 76.9 µM"}
{"smiles": "N#CC1=C(c2ccccc2)N=P(N2CCOCC2)(N2CCOCC2)N=C1N1CCOCC1", "Potency": "inactive: > 76.9 µM"}
{"smiles": "CCN(CC)CCNC(=O)c1nn(-c2ccc(C)cc2)c(=O)c2c1c1ccccc1n2C", "Potency": "inactive: > 76.9 µM"}
{"smiles": "O=C(CSCc1nc2ccccc2[nH]1)N1CCN(c2cccc(Cl)c2)CC1", "Potency": "inactive: > 76.9 µM"}
{"smiles": "CC(=O)c1c(C)n([O-])c2cc(C)ccc2[n+]1=O", "Potency": "inactive: > 76.9 µM"}
{"smiles": "CC1=C(C)C(=O)NC(Nc2nc(C)c3cc(C)cc(C)c3n2)N1", "note": "(stereo unspecified)", "Potency": "inactive: > 76.9 µM"}
{"smiles": "C=C(C)CSc1nnc([C@@H]2CCCN2C(=O)OC(C)(C)C)o1", "Potency": "inactive: > 76.9 µM"}
{"smiles": "O=P(OC1CCS(=O)(=O)C1)(c1ccccc1)c1ccccc1", "note": "(stereo unspecified)", "Potency": "inactive: > 76.9 µM"}
{"smiles": "O=C(CCS(=O)(=O)Cc1ccccc1F)N1CCc2ccccc2C1", "Potency": "inactive: > 76.9 µM"}
{"smiles": "CC1(C)OC(=O)N(CCc2ccccc2)C1(C)O", "note": "(stereo unspecified)", "Potency": "inactive: > 76.9 µM"}
{"smiles": "COC(=O)c1ccc(C)c(NC(=O)Cn2cnc3ccccc3c2=O)c1", "Potency": "inactive: > 76.9 µM"}
{"smiles": "COCCCNC(=O)c1cc(C)nc2ccc(F)cc12", "Potency": "inactive: > 76.9 µM"}
{"smiles": "Cc1ccccc1C(=O)N1CCC(C(=O)Nc2ccc(F)cc2)CC1", "Potency": "inactive: > 76.9 µM"}
{"smiles": "CC1C(O)=C(c2nc3ccccc3[nH]2)C(=N)N1c1ccccc1", "note": "(stereo unspecified)", "Potency": "inactive: > 76.9 µM"}
{"smiles": "CCN(C1CCS(=O)(=O)C1)S(=O)(=O)c1cccs1", "note": "(stereo unspecified)", "Potency": "inactive: > 76.9 µM"}
{"smiles": "Cc1c(C(=O)NCc2cccnc2)oc2ccc(S(=O)(=O)N3CCCCCC3)cc12", "Potency": "inactive: > 76.9 µM"}
{"smiles": "Cc1csc(NC(=O)c2nc3nccc(C)n3n2)n1", "Potency": "inactive: > 76.9 µM"}
{"smiles": "COCCn1c(SCC(=O)NC(=O)NCc2ccccc2)nc2ccccc21", "Potency": "inactive: > 76.9 µM"}
{"smiles": "O=C(c1cccc(F)c1)N1CCN(c2cccc(C(F)(F)F)c2)CC1", "Potency": "inactive: > 76.9 µM"}
{"smiles": "Cc1ccc(S(=O)(=O)Cn2nnnc2CN2CCN(Cc3ccc4c(c3)OCO4)CC2)cc1", "Potency": "inactive: > 76.9 µM"}
{"smiles": "Cc1cc(COc2ccccc2OCc2cc(C)no2)on1", "Potency": "inactive: > 76.9 µM"}
{"smiles": "CCC1(C(=O)OC)NC(c2cccc(F)c2)C2C(=O)N(C)C(=O)C21", "note": "(stereo unspecified)", "Potency": "inactive: > 76.9 µM"}
{"smiles": "CCOc1ccc2[nH]c(=O)c(CN(CC3COCCO3)C(=O)C3CC3)cc2c1", "note": "(stereo unspecified)", "Potency": "inactive: > 76.9 µM"}
{"smiles": "O=C(CCNS(=O)(=O)c1cccc2nsnc12)N1CCc2ccccc21", "Potency": "inactive: > 76.9 µM"}
{"smiles": "CCOC(=O)C1=C(C)N=C2SC(C)C(=O)N2C1/C=C/c1ccccc1OC", "note": "(stereo unspecified)", "Potency": "inactive: > 76.9 µM"}
{"smiles": "Cc1ccc(CCNC(=O)C2CCC(=O)N2C(C)C)cc1", "note": "(stereo unspecified)", "Potency": "inactive: > 76.9 µM"}
{"smiles": "COc1cccc(C(=O)OCc2ccccc2C#N)c1O", "Potency": "inactive: > 76.9 µM"}
{"smiles": "CC1=C(C#N)C(NC(=O)c2ccco2)(C(F)(F)F)C(=O)N1", "note": "(stereo unspecified)", "Potency": "inactive: > 76.9 µM"}
{"smiles": "COc1ccc(-c2noc(CCCC(=O)NCc3ccco3)n2)cc1OC", "Potency": "inactive: > 76.9 µM"}
{"smiles": "COCCCNC(=O)CCN1C(=O)COc2ccccc21", "Potency": "inactive: > 76.9 µM"}
{"smiles": "COC(=O)CSc1nnc([C@H](CC(C)C)NC(=O)OC(C)(C)C)o1", "Potency": "inactive: > 76.9 µM"}
{"smiles": "Cc1sc2nc(SCC(=O)Nc3c(C)n(C)n(-c4ccccc4)c3=O)n(C)c(=O)c2c1C", "Potency": "inactive: > 76.9 µM"}
{"smiles": "Cc1cc(C)n(CCc2nc(-c3cccs3)cs2)n1", "Potency": "inactive: > 76.9 µM"}
{"smiles": "CCOC(=O)c1ccc(NC(=O)C2CCCO2)cc1", "note": "(stereo unspecified)", "Potency": "inactive: > 76.9 µM"}
{"smiles": "COc1ccccc1N1CCN(C2=NS(=O)(=O)c3ccccc32)CC1", "Potency": "inactive: > 76.9 µM"}
{"smiles": "CCOCCCNC(=O)c1ccccc1SC", "Potency": "inactive: > 76.9 µM"}
{"smiles": "COC(=O)C(C)n1cnc2c(cnn2-c2ccc(Cl)cc2)c1=O", "note": "(stereo unspecified)", "Potency": "inactive: > 76.9 µM"}
{"smiles": "COc1cc(C2=NOC(C(=O)Nc3ccc(C)cc3)C2)cc(OC)c1OC", "note": "(stereo unspecified)", "Potency": "inactive: > 76.9 µM"}
{"smiles": "Cc1cc(C)n(-c2ccn(Cc3ccc(Cl)cc3Cl)c(=O)n2)n1", "Potency": "inactive: > 76.9 µM"}
{"smiles": "O=C(c1ccc2nc(N3CCOCC3)sc2c1)N1CCC2(CC1)OCCO2", "Potency": "inactive: > 76.9 µM"}
{"smiles": "CCn1cc(S(=O)(=O)CC(=O)Nc2ccc(C)cc2)c2ccccc21", "Potency": "inactive: > 76.9 µM"}
{"smiles": "COCc1c(C(N)=O)nnn1-c1nonc1N", "Potency": "inactive: > 76.9 µM"}
{"smiles": "CC1(C(=O)NC2CCCCCCC2)CCC(=O)N1CCN1CCOCC1", "note": "(stereo unspecified)", "Potency": "inactive: > 76.9 µM"}
{"smiles": "Cc1nn(Cc2ccc(Cl)c(Cl)c2)c(C)c1NC(=O)c1cc(-c2ccc3c(c2)OCO3)on1", "Potency": "inactive: > 76.9 µM"}
{"smiles": "Cn1c(CNC(=O)c2ccco2)nnc1SCC(=O)N1c2ccccc2Sc2ccccc21", "Potency": "inactive: > 76.9 µM"}
{"smiles": "CC1(C)Cc2c(sc(NC(=O)c3ccco3)c2C#N)CO1", "Potency": "inactive: > 76.9 µM"}
{"smiles": "CCS(=O)(=O)N1CCC(C(=O)NCc2ccccn2)CC1", "Potency": "inactive: > 76.9 µM"}
{"smiles": "COc1ccccc1CNC(=O)CCC(=O)Nc1nnc(C)s1", "Potency": "inactive: > 76.9 µM"}
{"smiles": "CCCCn1c(S(=O)(=O)O)nc2ccccc21", "Potency": "inactive: > 76.9 µM"}
{"smiles": "CCOC(=O)CSc1nc2ccccc2c(=O)n1CC", "Potency": "inactive: > 76.9 µM"}
{"smiles": "COCCCn1c(SCC(=O)Nc2nnc(C)s2)nnc1-c1ccoc1C", "Potency": "inactive: > 76.9 µM"}
{"smiles": "Cc1cc(SCC#N)n2nc(C)c(-c3ccccc3)c2n1", "Potency": "inactive: > 76.9 µM"}
{"smiles": "COc1ccc(OC)c(C2=Nn3c(nnc3-c3cccc(OC(C)C)c3)SC2)c1", "Potency": "inactive: > 76.9 µM"}
{"smiles": "NC(=NC(=O)c1ccccc1)C1=C(O)CCC1=O", "Potency": "inactive: > 76.9 µM"}
{"smiles": "COc1ccccc1N1CCN(C(c2ccc(F)cc2)c2nnnn2C(C)C)CC1", "note": "(stereo unspecified)", "Potency": "inactive: > 76.9 µM"}
{"smiles": "COc1ccc(Cc2c(O)nc(SC)n(C(C)=O)c2=O)cc1", "Potency": "inactive: > 76.9 µM"}
{"smiles": "O=C(Nc1ccccc1C(=O)NCc1ccccc1)c1ccco1", "Potency": "inactive: > 76.9 µM"}
{"smiles": "CC(C)(C)OC(=O)N1CCC[C@H]1c1nnc(SCc2ccccc2Cl)o1", "Potency": "inactive: > 76.9 µM"}
{"smiles": "CNC(=O)CSc1nnc(-c2ccco2)n1-c1ccccc1OC", "Potency": "inactive: > 76.9 µM"}
{"smiles": "CC1CCc2c(sc3nc(SCC(=O)NCc4ccco4)nc(N)c23)C1", "note": "(stereo unspecified)", "Potency": "inactive: > 76.9 µM"}
{"smiles": "COc1ccc(S(=O)(=O)Nc2cc(C)on2)cc1OC", "Potency": "inactive: > 76.9 µM"}
{"smiles": "CCOc1cc(-c2noc(CCC(=O)N3CCOCC3)n2)ccc1OC", "Potency": "inactive: > 76.9 µM"}
{"smiles": "O=C(Nc1ccc(CCC(=O)N2CCCC2)cc1)c1ncn[nH]1", "Potency": "inactive: > 76.9 µM"}
{"smiles": "Cc1cccc(Nc2nnc(SCc3cn4ccsc4n3)s2)c1", "Potency": "inactive: > 76.9 µM"}
{"smiles": "CSC1=C(C#N)C(C)C2=C(CC(C)(C)CC2=O)N1", "note": "(stereo unspecified)", "Potency": "inactive: > 76.9 µM"}
{"smiles": "COCCn1c(SCC(=O)N2CCCc3ccccc32)nnc1-c1ccco1", "Potency": "inactive: > 76.9 µM"}
{"smiles": "COC(=O)c1ccccc1NC(=O)C1CC=CCC1C(=O)O", "note": "(stereo unspecified)", "Potency": "inactive: > 76.9 µM"}
{"smiles": "Cn1c(C(=O)N2CCCC(C(=O)O)C2)cc2sccc21", "note": "(stereo unspecified)", "Potency": "inactive: > 76.9 µM"}
{"smiles": "O=C(CS(=O)CC(=O)N(CC(=O)NC1CCCC1)C1CCCC1)Nc1ccc(F)cc1", "note": "(stereo unspecified)", "Potency": "inactive: > 76.9 µM"}
{"smiles": "CC(=O)c1c(C(C)=O)c(C)n(NC(=O)c2cccnc2)c1C", "Potency": "inactive: > 76.9 µM"}
{"smiles": "COc1cc(Cl)c(C)cc1NC(=O)COC(=O)c1cnc(C)cn1", "Potency": "inactive: > 76.9 µM"}
{"smiles": "O=C(Cn1c(=O)oc2ccccc21)N(Cc1ccccc1)C1CCS(=O)(=O)C1", "note": "(stereo unspecified)", "Potency": "inactive: > 76.9 µM"}
{"smiles": "COc1ccc(N2CCN(CCNC(=O)C3CC(=O)N(C4CCCC4)C3)CC2)cc1", "note": "(stereo unspecified)", "Potency": "inactive: > 76.9 µM"}
{"smiles": "Cc1ccc(N2C(=O)[C@@H]3[C@H](C2=O)C2c4ccccc4C=CN2[C@@H]3C(=O)c2ccco2)c(C)c1", "note": "(stereo partly specified)", "Potency": "inactive: > 76.9 µM"}
{"smiles": "CCSc1nnc(C)n1-c1ccc(C(=O)O)cc1", "Potency": "inactive: > 76.9 µM"}
{"smiles": "CCOC(=O)c1cc2sccc2n1CC(=O)c1ccc2c(c1)OCCO2", "Potency": "inactive: > 76.9 µM"}
{"smiles": "CCc1nnc(NC(=O)CSc2nnc(CNc3cccc(C)c3)n2-c2ccccc2)s1", "Potency": "active: 11.3 µM"}
